According to PubChem BioAssay AID624417 (National Center for Advancing Translational Sciences (NCATS), 2012):
Screen size: about 410,000 compounds; about 6,400 (1.6%) were called active. The shares of active, inactive and inconclusive entries below differ from those in the screen. The call rests on the fitted dose curve; in most records, active means well fitted inhibition curve with a large enough effect; inconclusive means small, poorly fitted or top-dose-only effect; inactive means no such curve, though single readings can be large or run the other way. Potencies of inconclusive entries are left out as doubtful fits.

biological target: Glucagon-like peptide 1 receptor (Homo sapiens) (UniProt P43220); experiment: qHTS of GLP-1 Receptor Inverse Agonists (Inhibition Mode); settings: HEK293 GLP-1R CRE-luciferase, luminescence, 24 h, GLP-1R form is constitutively active; activity change, negative = inhibition: at 38.3 µM (top of the series) unless noted; further: nearly all actives have a fitted effect of over 55% in size
Chain of UniProt P43220 (P43220 whole entry, looked up): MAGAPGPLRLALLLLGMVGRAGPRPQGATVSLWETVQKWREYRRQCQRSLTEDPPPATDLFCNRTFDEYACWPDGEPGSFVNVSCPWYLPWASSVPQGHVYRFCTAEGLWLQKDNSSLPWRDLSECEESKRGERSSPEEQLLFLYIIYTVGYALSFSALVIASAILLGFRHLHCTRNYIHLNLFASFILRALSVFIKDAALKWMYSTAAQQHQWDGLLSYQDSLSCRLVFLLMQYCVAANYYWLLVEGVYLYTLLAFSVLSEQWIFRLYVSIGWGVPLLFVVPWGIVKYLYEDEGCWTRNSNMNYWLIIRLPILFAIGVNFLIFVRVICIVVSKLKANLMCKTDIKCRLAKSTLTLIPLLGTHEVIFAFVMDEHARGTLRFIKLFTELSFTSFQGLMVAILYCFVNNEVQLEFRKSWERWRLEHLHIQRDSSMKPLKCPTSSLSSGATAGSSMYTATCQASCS
How it was run: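 Readout was luciferase luminescence, measured 12 min after detection reagent at room temperature. Beforehand, GLP-1R reporter HEK293 cells had sat 12 h, then received compounds for 24 hr at 37 deg C.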
On the % scale 0 is the no-effect control and ±100 the full control effect; potency means the concentration at half of the fitted maximal effect; tags describe the fitted curve by direction and shape.

Row | SMILES | Potency | activity change, negative = inhibition
1 | O=C(Nc1nnc(SCc2ccc(Cl)cc2)s1)C1CC(=O)N(Cc2ccccc2)C1 (stereo unspecified) | inconclusive [inhibitor, single point] | –
2 | COC(=O)C1=C(C)N(C2CCCCC2)C(=O)/C1=C\c1cccs1 | inconclusive [inhibitor, full curve] | –
3 | CCn1cc(S(=O)(=O)Nc2ccc3c(c2)OCCO3)cn1 | inconclusive [inhibitor, partial curve, poor fit] | –
4 | COc1ccc(S(=O)(=O)N2CCC(NC(=O)Nc3ccc(C)cc3)CC2)cc1 | inconclusive [inhibitor, partial curve, poor fit] | –
5 | CCCCn1nnnc1C1(C)CCC(=O)N1CCc1ccccc1F (stereo unspecified) | inconclusive [inhibitor, full curve, poor fit] | –
6 | c1ccc(C(c2ccccc2)c2ccn[nH]2)cc1 | inconclusive [inhibitor, single point] | –
7 | Cc1nc2c(c(SCC(=O)Nc3ccccc3C(F)(F)F)n1)CCC2 | inactive | –
8 | O=C(Nn1cnnc1)c1ccc(Cl)c([N+](=O)[O-])c1 | inactive | –
9 | CN1CCN(C(=O)c2c(NC(=O)c3ccco3)sc3c2CCC(C(C)(C)C)C3)CC1 (stereo unspecified) | inconclusive [inhibitor, single point] | –
10 | CCOc1ccccc1NC(=O)c1cc(CC(C)C)oc1C | inconclusive [inhibitor, single point] | –
11 | O=C(NCCSc1c[nH]c2ccccc12)c1ccco1 | inactive | –
12 | O=C(c1ccc2c(c1)CCN2S(=O)(=O)c1ccc(Cl)cc1)N1CCN(c2ccccc2F)CC1 | inconclusive [inhibitor, single point] | –
13 | Cc1ccc(-n2cc3c(-c4cccc(Br)c4)nnc(C)c3n2)cc1 | inconclusive [inhibitor, partial curve, poor fit] | –
14 | CCN(c1ccccc1)S(=O)(=O)c1ccc(NC(=S)NC(=O)c2ccc(Br)o2)cc1 | inconclusive [inhibitor, full curve, poor fit] | –
15 | COc1ccc(Nc2ncc(C(=O)N3CCN(c4ccc(OC)cc4)CC3)c3ccccc23)cc1 | inconclusive [inhibitor, single point] | –
16 | S=C(Nc1ccccc1)N1CCC(Cc2ccccc2)CC1 | inconclusive [inhibitor, single point] | –
17 | Cc1ccc(NS(=O)(=O)c2ccc3c(c2)NC(=O)CO3)c(C)c1 | inconclusive [inhibitor, partial curve] | –
18 | CCCCCC/C(=N/O)c1ccccn1 | inconclusive [inhibitor, partial curve] | –
19 | CC1CCN(S(=O)(=O)c2ccc3c(c2)N(CC(=O)NCCCN2CCCC(C)C2)C(=O)CO3)CC1 (stereo unspecified) | inconclusive [inhibitor, partial curve, poor fit] | –
20 | CC(C)(C)NC(=O)C(c1ccc(C#N)cc1)n1c(=O)c(-c2ccco2)nc2ccccc21 (stereo unspecified) | inactive | –
21 | O=c1cc(CN(Cc2ccccc2)Cc2ccccc2)c2c(ccc3ccccc32)o1 | inconclusive [inhibitor, single point] | –
22 | O=C(c1ccccc1Br)N1CCC(c2nc3ccccc3s2)CC1 | inconclusive [inhibitor, single point] | –

Row | SMILES | Potency | activity change, negative = inhibition
23 | CCN(CC)c1ccc(/C=N/O)cc1 | inconclusive [inhibitor, single point] | –
24 | CCOc1cc(C(=S)N2CCOCC2)ccc1OS(=O)(=O)c1ccc(OC)cc1 | inconclusive [inhibitor, partial curve, poor fit] | –
25 | C=C(C)CN1CCN(S(=O)(=O)c2ccc(C)c(N(C)S(=O)(=O)c3ccc(C)cc3)c2C)CC1 | inconclusive [inhibitor, single point] | –
26 | COc1ccc(C2=NCN(c3ccc(C)cc3)C(=S)N2)cc1 | inconclusive [inhibitor, single point] | –
27 | COc1cc(SC)ccc1C(=O)Nc1nc(C)cs1 | active: 1.12 µM | –
28 | CC1CC(=O)Nc2ccccc2N1S(=O)(=O)c1ccc(F)cc1F (stereo unspecified) | inactive | –
29 | Cc1ccc(C(=O)N2CCCC(Nc3ccc(F)cc3)C2)cc1C (stereo unspecified) | inconclusive [inhibitor, partial curve] | –
30 | COc1cccc(C2=NOC(C(=O)NCc3ccco3)C2)c1 (stereo unspecified) | inconclusive [inhibitor, partial curve, poor fit] | –
31 | Cc1c(C(=O)Nc2cccc(F)c2)sc2nc(-c3cc4ccccc4oc3=O)[nH]c(=O)c12 | inactive | –
32 | CCOc1cccc(-c2cc(C(=O)Nc3ccon3)c3ccccc3n2)c1 | inconclusive [inhibitor, partial curve, poor fit] | –
33 | CN(C1CCCCC1)S(=O)(=O)c1ccc(F)c(C(=O)Nc2ccc(C(F)(F)F)cc2)c1 | inconclusive [inhibitor, partial curve, poor fit] | –
34 | COc1cc(OC)cc(C(=O)NCCc2csc(-c3cccc(C)c3)n2)c1 | inconclusive [inhibitor, single point] | –
35 | CCCc1ccc(-c2c(C)sc(N)c2C#N)cc1 | inconclusive [inhibitor, partial curve, poor fit] | –
36 | COc1ccc(C(CNC(=O)c2cccc(NS(=O)(=O)c3ccc(C)c(F)c3)c2)N(C)C)cc1 (stereo unspecified) | active: 11.2 µM | –
37 | CCCN(CCC)C(C)C(=O)NCC1(c2ccccc2)CCCC1 (stereo unspecified) | inconclusive [inhibitor, partial curve, poor fit] | –
38 | C/C(=N\NC(=S)NCc1ccccc1)C1CCCCC1 | inconclusive [inhibitor, single point] | –
39 | O=C(O)c1ccc2c(c1)C(=O)N(CCc1c[nH]c3ccccc13)C2=O | inactive | –
40 | CCOc1ccc(/C=N/NC(=S)Nc2c(C)cccc2C)cc1 | inconclusive [inhibitor, partial curve, poor fit] | –
41 | C=CCc1cc(C(=O)N2CCCCC2)ccc1O | inconclusive [inhibitor, single point] | –
42 | Cc1nnc(N2CCN(c3ccc(Cl)cc3)CC2)c2c1nnn2Cc1ccc(F)cc1 | inactive | –
43 | CCC1Nc2ncnc(N3CCN(c4ccccn4)CC3)c2N(Cc2ccc(Cl)cc2)C1=O (stereo unspecified) | inconclusive [inhibitor, single point] | –
44 | c1ccc(CSc2ncnc3c2ncn3C2CCCCO2)cc1 (stereo unspecified) | inconclusive [inhibitor, single point] | –

Row | SMILES | Potency | activity change, negative = inhibition
45 | CCCCC1Cc2[nH]c(=S)[nH]c(=O)c2C(c2cccc3ccccc23)O1 (stereo unspecified) | inactive | –
46 | Cc1ccc(NC(=O)c2c([N+](=O)[O-])c(C(C)(C)C)nn2C)cc1 | inconclusive [inhibitor, partial curve, poor fit] | –
47 | CC1=C(C(=O)Nc2ccc(C)cc2)C(c2ccc(C)o2)C2=C(CC(C)(C)CC2=O)N1 (stereo unspecified) | inconclusive [inhibitor, partial curve, poor fit] | –
48 | CN(C)S(=O)(=O)N(CC(=O)Nc1ccc(Br)cc1F)c1ccccc1 | inconclusive [inhibitor, single point] | –
49 | CC1CCCC(NC(=O)CN2CCN(S(=O)(=O)c3cccs3)CC2)C1C (stereo unspecified) | inconclusive [inhibitor, full curve] | –
50 | N#Cc1nc(Cc2ccccc2)oc1NCc1ccccc1 | inconclusive [inhibitor, single point] | –
51 | O=C(NCCCN1CCC(Cc2ccccc2)CC1)c1ccc(CS(=O)c2ccccc2Cl)o1 (stereo unspecified) | inconclusive [inhibitor, single point] | –
52 | CCc1ccc(NC(=O)CSc2nc(-c3ccccc3)no2)cc1 | inconclusive [inhibitor, single point] | –
53 | Cc1sc(NC(=O)CN2CCCC2)nc1-c1ccc2c(c1)CCN2C(=O)c1ccc(F)cc1 | inconclusive [inhibitor, single point] | –
54 | COc1ccc(CCNc2ncnc3c2nnn3C)cc1OC | inactive | –
55 | Oc1ccc(C=NNC(=S)Nc2cccnc2)nc1 | inconclusive [inhibitor, single point] | –
56 | Cn1cccc1C(=O)NC(=O)COC(=O)CC12CC3CC(CC(C3)C1)C2 | inactive | –
57 | COc1ccc(CN(C)CC2CCCN(CCc3ccccc3C)C2)cc1O (stereo unspecified) | inconclusive [inhibitor, partial curve] | –
58 | COc1ccc(-c2oc3ccc(-c4cc(OC)c(OC)c(OC)c4)cc3c2-c2ccc(OC)nc2)cc1 | inconclusive [inhibitor, partial curve, poor fit] | –
59 | CN(c1cccc(Cl)c1)S(=O)(=O)c1cccc(C(=O)Nc2ccc3c(c2)CCC3)c1 | inconclusive [inhibitor, full curve] | –
60 | O=C(c1cc(-c2ccccc2Cl)on1)N1CCCC1 | inconclusive [inhibitor, partial curve, poor fit] | –
61 | Fc1ccccc1N1CCN(c2nnc(C(F)(F)F)c3nnn(Cc4ccccc4)c23)CC1 | inactive | –
62 | O=C(CCN1CCCC1)Nc1cccc(Br)c1 | inactive | –
63 | CCN(CC)CC(O)Cn1c2ccccc2c2ccccc21 (stereo unspecified) | inconclusive [inhibitor, partial curve, poor fit] | –
64 | Cc1ccc(C(=O)C[n+]2ccc(-c3nnc4n3CCC4)cc2)cc1 | inactive | –
65 | O=C(Nc1ccccc1Oc1ccccc1)c1cccs1 | – | inconclusive: -48% [inhibitor]
66 | O=C(c1ccc(Br)o1)N1CCN(Cc2ccc3c(c2)OCO3)CC1 | inactive | –
